The source of these data is US20230210967A1, “IMPROVED PEPTIDE VACCINE” (BRIGHTPATH BIOTHERAPEUTICS CO., LTD., priority 2020, published 2023).

The test system of test [1] is wild-type C57BL/6 mice. The test can be described thus: Immunity induction test 1 in wild-type mice (comparison with conventional vaccine regimen). The following applies: peptide (3-1) 21.1 micro g, with or without anti-mouse CD40 antibody 400 micro g and PolyIC:LC 8 micro g; s.c. day 0 and 7, spleen day 14; FIG. 8. The class given is in vivo. The procedure:
7 week-old, female, wild-type C57BL/6 mice (CLEA Japan, Inc.) were divided into five groups, with six mice per group, and experiments were performed with the group composition in Table 4.
Specifically, each drug was subcutaneously administered to the mice of each group every 7 days twice in total (on day 0 and day 7 when the first administration day was taken as day 0) . […] Induction of Ova specific T cells was evaluated based on the proportion of tetramer-positive cells in the CD8-positive T cells.

Test [2] has as its system wild-type C57BL/6 mice. The test can be described thus: Immunity induction test 5 in wild-type mice (CD40 or PD-L1 antibody conjugates). The class given is in vivo, mouse. Particulars: peptide (3-1) 10.5 micro g, without antibody or with anti-CD40 or anti-PD-L1 antibody 200 micro g, PolyIC:LC 8 micro g; s.c. day 0 and 7, spleen day 14; FIG. 16. The procedure:
In this example, 7 week-old, female, wild-type C57BL/6 mice (CLEA Japan, Inc.) were first divided into four groups with five mice per group, and experiments were performed with the group composition in Table 9.
Specifically, each drug was subcutaneously administered to the mice of each group every 7 days twice in total (on day 0 and day 7 when the first administration day was taken as day 0).

For a further test, the target named is T1, anti-CD40 antibody (IgG) (Homo sapiens, UniProt P01857, L117A/L118A).
T1 construct: a secretion signal, a heavy-chain variable region, and a heavy-chain constant region were connected in tandem; anti-CD40 heavy-chain variable region (FGK45 clone, AEI27236.1, if the anti-mouse CD40 antibody was used); made in house; host or cells: ExpiCHO cells
T1 sequence (P01857 1-330 isoform P01857-1 L117A/L118A, other chains not shown): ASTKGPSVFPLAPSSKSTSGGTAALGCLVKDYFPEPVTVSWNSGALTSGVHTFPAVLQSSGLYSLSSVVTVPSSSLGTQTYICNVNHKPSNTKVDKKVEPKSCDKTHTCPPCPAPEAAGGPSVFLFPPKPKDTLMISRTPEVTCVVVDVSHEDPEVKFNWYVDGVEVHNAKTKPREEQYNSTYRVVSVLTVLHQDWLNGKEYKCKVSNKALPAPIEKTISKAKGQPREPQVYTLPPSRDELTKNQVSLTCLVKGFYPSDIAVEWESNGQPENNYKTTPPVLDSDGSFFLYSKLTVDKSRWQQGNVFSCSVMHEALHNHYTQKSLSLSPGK
The test can be described thus: Analysis of affinity of peptide for IgG (BIAcore 8K). Particulars: anti-CD40 antibody immobilized on CM5 sensor chip, peptide 3 nM to 243 nM, single kinetic mode; for kon: read-out: Association rate constant (Ka); for koff: read-out: Dissociation rate constant (Kd). It is filed as binding. The procedure: Peptide (3-1) (SEQ ID NO: 30), peptide (3-2) (SEQ ID NO: 41), peptide (3-3) (SEQ ID NO: 42), peptide (3-4) (SEQ ID NO: 43), and peptide (4) (negative control, SEQ ID NO: 31) were used as the peptides to be evaluated. For the H-2Kb restricted OVA-derived peptides having the aforementioned four different IgG binding peptide sequences, the binding activities to the antibody were evaluated. The IgG for which the affinity was evaluated was immobilized to a CM5 sensor chip (GE Health care) using the anti-CD40 antibody created in Example 1. Specifically, the sample solution of each peptide was prepared by 3-fold dilution series from 3 nM to 243 nM, measured and analyzed with respect to the anti-CD40 antibody immobilized onto the CM5 sensor chip using BIAcore 8K (GE Health care) in the single kinetic mode. The dissociation constant was calculated using Biacore Insight Evaluation software to analyze the observation results.

Test [3] relates to wild-type C57BL/6 mice. The test is described as follows: Immunity induction test 6 in wild-type mice (conjugate vs non-conjugating peptide plus antibody). The class given is in vivo, mouse. The following applies: peptide (3-1) or peptide (4) 10.5 micro g + anti-CD40 or anti-PD-L1 antibody 200 micro g + PolyIC:LC 8 micro g; s.c. day 0 and 7, spleen day 14; FIG. 17. The procedure:
7 week-old, female, wild-type C57BL/6 mice (CLEA Japan, Inc.) were divided into five groups, with six mice per group, and experiments were performed with the group composition in Table 10.
Specifically, each drug was subcutaneously administered to the mice of each group every 7 days twice in total (on day 0 and day 7 when the first administration day was taken as day 0) .

Where a SMILES comes first, the peptide text is derived from it. Bridges are numbered along the chain shown (N, C = ends).

On to `CC[C@H](C)[C@H](NC(=O)[C@H](CO)NC(=O)[C@H](CCC(=O)O)NC(=O)[C@H](CC(C)C)NC(=O)[C@H](CCC(N)=O)NC(=O)[C@@H](N)CCC(=O)O)C(=O)N[C@H](C(=O)N[C@@H](CC(N)=O)C(=O)N[C@@H](Cc1ccccc1)C(=O)N[C@@H](CCC(=O)O)C(=O)N[C@@H](CCCCN)C(=O)N[C@@H](CC(C)C)C(=O)N[C@H](C(=O)N[C@@H](CCC(=O)O)C(=O)N[C@@H](Cc1c[nH]c2ccccc12)C(=O)N[C@H](C(=O)NCC(=O)N1CCC[C@H]1C(=O)N[C@@H](CC(=O)O)C(=O)N[C@H]1CSSC[C@@H](C(=O)N[C@H](C(=O)N[C@@H](Cc2ccccc2)C(=O)N[C@@H](Cc2c[nH]cn2)C(=O)O)[C@@H](C)O)NC(=O)[C@H](Cc2c[nH]c3ccccc23)NC(=O)[C@H](C(C)C)NC(=O)[C@H](CC(C)C)NC(=O)[C@H](CCC(=O)O)NC(=O)CNC(=O)[C@H](CCCNC(=N)N)NC(=O)[C@H](Cc2c[nH]cn2)NC(=O)[C@H](Cc2ccc(O)cc2)NC(=O)[C@H](C)NC1=O)[C@@H](C)O)[C@@H](C)O)[C@@H](C)CC` [Peptide (3-1), EQLESIINFEKLTEWT GPDCAYHRGELVWCTFH] (H-EQLESIINFEKLTEWTGPDCAYHRGELVWCTFH-OH; disulfide 20-30; N-terminus and C-terminus assumed), for which the “Induction of Ova specific T cells (proportion of tetramer-positive cells in CD8-positive T cells)” value in the test with wild-type C57BL/6 mice [1] is recorded as “an ability to promote T cell induction was exhibited”. In addition, in the test on wild-type C57BL/6 mice [2], the “Ova-specific T cell induction” value is listed as “an ability to promote T cell induction was shown”. Further, on anti-CD40 antibody (IgG), binding was put at a Kd of 0.0649 µM, the kon is 331000 M⁻¹ s⁻¹ and the koff stood at 0.0215 s⁻¹.
For `CC[C@H](C)[C@H](NC(=O)[C@H](CO)NC(=O)[C@H](CCC(=O)O)NC(=O)[C@H](CC(C)C)NC(=O)[C@H](CCC(N)=O)NC(=O)[C@@H](N)CCC(=O)O)C(=O)N[C@H](C(=O)N[C@@H](CC(N)=O)C(=O)N[C@@H](Cc1ccccc1)C(=O)N[C@@H](CCC(=O)O)C(=O)N[C@@H](CCCCN)C(=O)N[C@@H](CC(C)C)C(=O)N[C@H](C(=O)N[C@@H](CCC(=O)O)C(=O)N[C@@H](Cc1c[nH]c2ccccc12)C(=O)N[C@H](C(=O)NCC(=O)N1CCC[C@H]1C(=O)N[C@@H](CC(=O)O)C(=O)N[C@H]1CSSC[C@@H](C(=O)N[C@H](C(=O)N[C@@H](Cc2ccccc2)C(=O)N[C@@H](Cc2c[nH]cn2)C(=O)O)[C@@H](C)O)NC(=O)[C@H](Cc2c[nH]c3ccccc23)NC(=O)[C@H](C(C)C)NC(=O)[C@H](CC(C)C)NC(=O)[C@H](CCC(=O)O)NC(=O)CNC(=O)[C@H](CCCNC(=N)N)NC(=O)[C@H](Cc2c[nH]cn2)NC(=O)[C@H](Cc2c[nH]c3ccccc23)NC(=O)[C@H](C)NC1=O)[C@@H](C)O)[C@@H](C)O)[C@@H](C)CC` [Peptide (3-3), EQLESIINFEKLTEWT GPDCAWHRGELVWCTFH] (H-EQLESIINFEKLTEWTGPDCAWHRGELVWCTFH-OH; disulfide 20-30 (inferred); N-terminus and C-terminus assumed), at anti-CD40 antibody (IgG), the “Affinity (KD)” value is reported as “higher affinity than peptide (3-2)”, the kon was found to be 275000 M⁻¹ s⁻¹ and the koff came to 0.0181 s⁻¹.
As for `CC[C@H](C)[C@H](NC(=O)[C@H](CO)NC(=O)[C@H](CCC(=O)O)NC(=O)[C@H](CC(C)C)NC(=O)[C@H](CCC(N)=O)NC(=O)[C@@H](N)CCC(=O)O)C(=O)N[C@H](C(=O)N[C@@H](CC(N)=O)C(=O)N[C@@H](Cc1ccccc1)C(=O)N[C@@H](CCC(=O)O)C(=O)N[C@@H](CCCCN)C(=O)N[C@@H](CC(C)C)C(=O)N[C@H](C(=O)N[C@@H](CCC(=O)O)C(=O)N[C@@H](Cc1c[nH]c2ccccc12)C(=O)N[C@H](C(=O)NCC(=O)N1CCC[C@H]1C(=O)N[C@@H](CC(=O)O)C(=O)N[C@H]1CSSC[C@@H](C(=O)N[C@H](C(=O)N[C@@H](Cc2ccccc2)C(=O)N[C@@H](Cc2c[nH]cn2)C(=O)O)[C@@H](C)O)NC(=O)[C@H](Cc2c[nH]c3ccccc23)NC(=O)[C@H](C(C)C)NC(=O)[C@H](CC(C)C)NC(=O)[C@H](CCC(=O)O)NC(=O)CNC(=O)[C@H](CC(C)C)NC(=O)[C@H](Cc2c[nH]cn2)NC(=O)[C@H](Cc2c[nH]c3ccccc23)NC(=O)[C@H](C)NC1=O)[C@@H](C)O)[C@@H](C)O)[C@@H](C)CC` [Peptide (3-4), EQLESIINFEKLTEWT GPDCAWHLGELVWCTFH] (H-EQLESIINFEKLTEWTGPDCAWHLGELVWCTFH-OH; disulfide 20-30 (inferred); N-terminus and C-terminus assumed), on anti-CD40 antibody (IgG), the “Affinity (KD)” value is “higher affinity than peptide (3-2) and peptide (3-3)”; the kon came out at 250000 M⁻¹ s⁻¹; the koff was 0.00444 s⁻¹.
For the molecule “EQLESIINFEKLTEWT GPDCAYHRGEAAACTFH [Peptide (4), control peptide, negative control, reference compound]”, the “Affinity (KD)” value on anti-CD40 antibody (IgG) was “low affinity”. In the test with wild-type C57BL/6 mice [3], the “Induction of Ova-specific T cells” value is “T cell induction was exhibited”.
